Experimental data: the supplement of paper PMC6089552
Out of some 3,200 compounds screened, about 300 (9.4%) showed activity. This is a selection; strong and weak results do not stand in their true shares.

System: A673/TR/shEF
Test: cell viability (LOESS-normalised, relative to median of negative controls) (log2 ratio); higher = more viable cells (less compound effect), active = hit call of the paper (over 3 MAD below the median)
Conditions: treatment time: 72 h
Outline: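 For three days, A673/TR/shEF Ewing sarcoma cells in 384-well plates (1,500 per well) were treated with library compounds at two or more concentrations or with DMSO controls, after doxycycline had been added or withheld 24 h beforehand to induce EWS-FLI1 shRNA knockdown. Viability was read by CellTiter-Glo luminescence on an Envision reader. The data were LOESS-corrected per plate, divided by the median of negative controls and log2-transformed.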

[1] = 0.25 µM, library screen: screen2, EWS-FLI1 expression: high (no doxycycline)
[2] = 0.25 µM, library screen: screen2, EWS-FLI1 expression: low (doxycycline-induced shRNA knockdown)
[3] = 2.5 µM, library screen: screen2, EWS-FLI1 expression: high (no doxycycline)
[4] = 2.5 µM, library screen: screen2, EWS-FLI1 expression: low (doxycycline-induced shRNA knockdown)
[5] = 0.103 µM, library screen: screen3, EWS-FLI1 expression: high (no doxycycline)
[6] = 0.103 µM, library screen: screen3, EWS-FLI1 expression: low (doxycycline-induced shRNA knockdown)
[7] = 0.308 µM, library screen: screen3, EWS-FLI1 expression: high (no doxycycline)
[8] = 0.308 µM, library screen: screen3, EWS-FLI1 expression: low (doxycycline-induced shRNA knockdown)
[9] = 0.926 µM, library screen: screen3, EWS-FLI1 expression: high (no doxycycline)
[10] = 0.926 µM, library screen: screen3, EWS-FLI1 expression: low (doxycycline-induced shRNA knockdown)
[11] = 2.8 µM, library screen: screen3, EWS-FLI1 expression: high (no doxycycline)
[12] = 2.8 µM, library screen: screen3, EWS-FLI1 expression: low (doxycycline-induced shRNA knockdown)
[13] = 8.3 µM, library screen: screen3, EWS-FLI1 expression: high (no doxycycline)
[14] = 8.3 µM, library screen: screen3, EWS-FLI1 expression: low (doxycycline-induced shRNA knockdown)
[15] = 25 µM, library screen: screen3, EWS-FLI1 expression: high (no doxycycline)
[16] = 25 µM, library screen: screen3, EWS-FLI1 expression: low (doxycycline-induced shRNA knockdown)
[17] = 0.25 µM, library screen: screen1, EWS-FLI1 expression: high (no doxycycline)
[18] = 0.25 µM, library screen: screen1, EWS-FLI1 expression: low (doxycycline-induced shRNA knockdown)
[19] = 2.5 µM, library screen: screen1, EWS-FLI1 expression: high (no doxycycline)
[20] = 2.5 µM, library screen: screen1, EWS-FLI1 expression: low (doxycycline-induced shRNA knockdown)

Measured: cell viability (log2)

COc1ccccc1N1CCN(CCN(C(=O)C2CCCCC2)c2ccccn2)CC1
inactive: [1] 0.196 | [2] 0.0284 | [3] 0.133 | [4] 0.0787

CO[C@H]1C[C@@H]2CC[C@@H](C)[C@@](O)(O2)C(=O)C(=O)N2CCCC[C@H]2C(=O)O[C@H]([C@H](C)C[C@@H]2CC[C@@H](OCCO)[C@H](OC)C2)CC(=O)[C@H](C)/C=C(\C)[C@@H](O)[C@@H](OC)C(=O)[C@H](C)C[C@H](C)/C=C/C=C/C=C/1C
active: [5] -0.823 | [6] -0.667 | [7] -0.931 | [8] -0.779 | [9] -0.921 | [10] -0.761 | [11] -0.899 | [12] -0.779 | [13] -1.09 | [14] -0.731 | [15] -0.943 | [16] -0.733

CC(=O)O[C@@]12CO[C@@H]1C[C@H](O)[C@@]1(C)C(=O)[C@H](O)C3=C(C)[C@@H](OC(=O)[C@H](O)[C@@H](NC(=O)OC(C)(C)C)c4ccccc4)C[C@@](O)([C@@H](OC(=O)c4ccccc4)[C@H]21)C3(C)C
active: [5] -2.68 | [6] -0.934 | [7] -2.8 | [8] -1.01 | [9] -2.92 | [10] -1.04 | [11] -2.83 | [12] -1.04 | [13] -2.98 | [14] -1.06 | [15] -2.84 | [16] -1.01

COc1ccc(/C=C/C(=O)O)cc1OC
inactive: [17] -0.00585 | [18] -0.00138 | [19] 0.164 | [20] 0.0104

N=C(N)c1ccc(OCCCCCOc2ccc(C(=N)N)cc2)cc1
inactive: [17] 0.114 | [18] 0.194 | [1] 0.147 | [2] 0.137 | [19] 0.161 | [20] 0.127 | [3] 0.142 | [4] 0.0964

O=C(OC[C@H]1O[C@@H](OC(=O)c2cc(O)c(O)c(OC(=O)c3cc(O)c(O)c(O)c3)c2)[C@H](OC(=O)c2cc(O)c(O)c(OC(=O)c3cc(O)c(O)c(O)c3)c2)[C@@H](OC(=O)c2cc(O)c(O)c(OC(=O)c3cc(O)c(O)c(O)c3)c2)[C@@H]1OC(=O)c1cc(O)c(O)c(OC(=O)c2cc(O)c(O)c(O)c2)c1)c1cc(O)c(O)c(OC(=O)c2cc(O)c(O)c(O)c2)c1
inactive: [17] 0.0136 | [18] 0.0976 | [19] 0.0623 | [20] 0.298

COC(=O)Nc1nc2ccc(C(=O)c3ccccc3)cc2[nH]1
active: [19] -1.65 | [20] -0.988 | [3] -2.05 | [4] -0.641 | 25 µM, library screen: screen2, EWS-FLI1 expression: high (no doxycycline) -3.34 | 25 µM, library screen: screen2, EWS-FLI1 expression: low (doxycycline-induced shRNA knockdown) -1

O=c1cc(-c2cccc3c2Sc2ccccc2S3)oc(N2CCOCC2)c1
inactive: [5] 0.00625 | [6] 0.00883 | [7] -0.0309 | [8] 0.0146 | [9] 0.0133 | [10] 0.00404 | [11] 0.0162 | [12] 0.0289 | [13] -0.0501 | [14] 0.00607 | [15] 0.0363 | [16] -0.0432

Fc1ccc(C(c2ccc(F)cc2)N2CCN(C/C=C/c3ccccc3)CC2)cc1
inactive: [17] 0.0134 | [18] 0.0639 | [1] 0.16 | [2] 0.105 | [19] 0.177 | [20] 0.197 | [3] 0.161 | [4] 0.0855

CN1CCc2c(c3ccccc3n2Cc2ccccc2)C1
inactive: [17] 0.116 | [18] 0.0274 | [19] 0.196 | [20] 0.0416

NC(=NCc1ccccc1)NC(=O)c1nc(Cl)c(N)nc1N
inactive: [1] 0.171 | [2] 0.0781 | [3] 0.0974 | [4] -0.0222

CN(C)C(=O)/C(=C\c1cccc(Br)c1)NC(=O)c1ccccc1
inactive: [17] 0.0622 | [18] 0.0915 | [19] 0.179 | [20] 0.181

Nc1nc(Nc2ccccc2)nc2c1ncn2C1O[C@H](CO)[C@@H](O)[C@H]1O (stereo partly specified)
inactive: [1] 0.161 | [2] 0.05 | [3] 0.213 | [4] -0.0193

COc1cccc2c1[C@@H]1CN(CCCCn3c(=O)[nH]c4c(sc5ncc(-c6ccccc6)nc54)c3=O)C[C@@H]1CO2
inactive: [1] 0.117 | [2] 0.0856 | [3] 0.103 | [4] 0.0563

Nc1nc(Cl)nc2c1ncn2[C@H]1C[C@H](O)[C@@H](CO)O1
active: [13] -0.402 | [15] -1.32 | [16] -0.402

CN[C@@H]1[C@H](O[C@H]2[C@H](O[C@H]3[C@H](O)[C@@H](O)[C@H](N=C(N)N)[C@@H](O)[C@@H]3N=C(N)N)O[C@@H](C)[C@]2(O)C=O)O[C@@H](CO)[C@H](O)[C@H]1O
inactive: [17] 0.0829 | [18] 0.128 | [19] 0.11 | [20] 0.129

Cc1cccc(C(=O)O)c1O
inactive: [17] 0.098 | [18] 0.0424 | [19] 0.0687 | [20] 0.0506

OCCOCCN1CCN(C2=Nc3ccccc3Sc3ccccc32)CC1
inactive: [5] 0.129 | [6] 0.0203 | [7] 0.116 | [8] 0.0367 | [9] 0.0851 | [10] 0.0431 | [11] 0.0968 | [12] 0.0475 | [13] 0.102 | [14] 0.0358 | [15] 0.0832 | [16] 0.0818

COc1cccc2c1C(=O)c1c(O)c3c(c(O)c1C2=O)C[C@@](O)(C(=O)CO)C[C@@H]3O[C@H]1C[C@H](N)[C@H](O)[C@H](C)O1
inactive: [5] -0.177 | [6] -0.0878
active: [7] -0.86 | [8] -0.36 | [9] -1.59 | [10] -0.403 | [11] -2.62 | [12] -1.5 | [13] -4.26 | [14] -4.27 | [15] -4.05 | [16] -4.25

CC1(C)S[C@@H]2[C@H](NC(=O)[C@H](N)c3ccc(O)cc3)C(=O)N2[C@H]1C(=O)O
active: [15] -0.676
inactive: [5] 0.0884 | [6] 0.104 | [17] 0.0883 | [18] 0.0656 | [7] -0.0334 | [8] 0.0742 | [9] 0.0733 | [10] 0.103 | [19] 0.14 | [20] 0.178 | [11] -0.017 | [12] 0.0291 | [13] 0.0293 | [14] 0.106 | [16] -0.0237
